Source: publication PMC4336329 (PLoS ONE, 2015)
Hit rate of the full screen: of about 310,000 compounds, about 14,000 (4.5%) showed an effect of 50% or more. Effects have a minus sign here. The list shows a part of the results.

Target: human ether-à-go-go-related gene (hERG) potassium channel (human, UniProt Q12809)
Assay: primary screen, population patch clamp on CHO cells stably expressing hERG
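Note: peak tail current of the secondary pulse compared with the same well before compound.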

Sequence of human ether-à-go-go-related gene (hERG) potassium channel (Q12809 whole entry, looked up): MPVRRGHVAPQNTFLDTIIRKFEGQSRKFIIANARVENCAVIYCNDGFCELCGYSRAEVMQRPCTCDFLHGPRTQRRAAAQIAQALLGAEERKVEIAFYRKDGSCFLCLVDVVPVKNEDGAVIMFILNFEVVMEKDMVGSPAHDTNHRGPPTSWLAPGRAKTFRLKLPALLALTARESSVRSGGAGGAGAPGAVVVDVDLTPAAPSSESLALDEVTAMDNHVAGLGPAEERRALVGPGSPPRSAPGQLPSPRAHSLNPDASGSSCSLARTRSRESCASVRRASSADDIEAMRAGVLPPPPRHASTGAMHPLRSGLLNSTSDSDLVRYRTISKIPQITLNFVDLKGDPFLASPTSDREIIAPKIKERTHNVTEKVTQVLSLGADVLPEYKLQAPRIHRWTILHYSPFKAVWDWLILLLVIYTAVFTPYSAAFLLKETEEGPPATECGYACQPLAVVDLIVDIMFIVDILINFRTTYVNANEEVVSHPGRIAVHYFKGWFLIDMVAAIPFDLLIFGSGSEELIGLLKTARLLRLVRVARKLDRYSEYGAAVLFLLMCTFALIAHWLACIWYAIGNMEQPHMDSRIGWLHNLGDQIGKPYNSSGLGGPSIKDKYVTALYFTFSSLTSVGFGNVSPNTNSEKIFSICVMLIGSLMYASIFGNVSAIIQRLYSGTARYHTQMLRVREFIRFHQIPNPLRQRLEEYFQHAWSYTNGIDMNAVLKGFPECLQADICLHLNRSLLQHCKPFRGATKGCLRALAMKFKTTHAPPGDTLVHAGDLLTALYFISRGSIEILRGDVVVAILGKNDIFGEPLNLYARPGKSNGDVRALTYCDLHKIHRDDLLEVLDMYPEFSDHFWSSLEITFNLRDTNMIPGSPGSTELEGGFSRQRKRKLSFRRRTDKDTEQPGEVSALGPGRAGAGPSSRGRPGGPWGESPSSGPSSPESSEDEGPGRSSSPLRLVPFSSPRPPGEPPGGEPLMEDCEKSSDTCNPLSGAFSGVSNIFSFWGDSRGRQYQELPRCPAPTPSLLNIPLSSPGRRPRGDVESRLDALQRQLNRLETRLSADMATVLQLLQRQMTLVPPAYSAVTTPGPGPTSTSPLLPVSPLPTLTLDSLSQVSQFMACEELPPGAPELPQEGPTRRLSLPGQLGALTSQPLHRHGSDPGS

SMILES | hERG current change (%, negative = inhibition) at 10uM [%]
COc1cccc(CC(=O)Nn2c(C)nc3ccccc3c2=O)c1 | -12.9
COC(=O)c1cccc(S(=O)(=O)N2CCC(NC(=O)Nc3cccc(F)c3)CC2)c1 | -5.11
O=C1c2ccccc2S(=O)(=O)c2cc(C(=O)N3CCC(N4CCCC4)CC3)ccc21 | -12.5
O=C(N/N=C/c1cc([N+](=O)[O-])ccc1O)NC12CC3CC(CC(C3)C1)C2 | 0.588
CCOC(=O)c1cc[nH]c1CC(=O)NC | 6.13
COc1cccc(NC(=O)CN(C)C(=O)c2ccc(N3CCOCC3)c([N+](=O)[O-])c2)c1 | -37.6
CC(=O)Nc1ccc(NC(=O)c2c(C)nc3ccccn23)cc1 | 15.1
Cc1ccc(N2N=C(c3ccc(F)cc3)CC2c2ccco2)cc1 (stereo not shown) | 34.1
Cc1c(NS(=O)(=O)c2cc(C(=O)OCC(=O)N3CCC(C)CC3)ccc2Cl)c(=O)n(-c2ccccc2)n1C | -1.58
O=C(N/N=C/c1ccccn1)c1ccc(NC(=O)c2ccc(F)cc2)cc1 | -16.6
O=C(NCCC1CC1(Cl)Cl)Nc1ccccc1 (stereo not shown) | -1.02
Cc1ccc2cccnc2c1NC(=S)NC(=O)c1ccccc1 | 17
COc1ccc(NC(=S)NCCC2=CCCCC2)cc1OC | 23.9
CS(=O)(=O)c1cccc(C(=O)NCc2ccc(F)cc2)c1 | 0.5
O=C(COc1ccccc1)NCC1CCCO1 (stereo not shown) | 9.35
O=C(Cc1cccs1)NCc1cccc(C(F)(F)F)c1 | 7.33
Cc1cccc(C(=O)NC(=S)N2CCN(C(=S)NC(=O)c3cccc(C)c3)CC2)c1 | -0.873
Cc1cc(=O)oc2cc(N)ccc12 | -9.36
N#C/C(=C\c1cccs1)C(=O)NCc1cccnc1 | -17.4
Cc1cccc(-n2c(Cc3ccccc3)nnc2SCC(=O)N2CCOCC2)c1 | -1.12

SMILES | hERG current change (%, negative = inhibition) at 10uM [%]
CCOc1ccc(OCC(=O)N2CCC3(CC2)CC(=O)c2ccccc2O3)cc1 | -94.6
COc1ccc(OC)c(NC(=O)C(CC(C)C)NC(=O)C2CCCCC2)c1 (stereo not shown) | -11.3
Cl.O=C(NCC(c1cccs1)N1CCOCC1)c1ccccc1NS(=O)(=O)c1cc([N+](=O)[O-])ccc1Cl (stereo not shown) | -8.83
CCc1sc(C(=O)NC2CCN(C)CC2)cc1Br | -7.34
Cc1cnc(=O)[nH]c1SCC(=O)c1ccc(F)cc1 | 12.1
O=C(NCCNc1ccc([N+](=O)[O-])cc1C(F)(F)F)c1ccccc1F | -33.9
CC(=O)N1CCN(CCN2C(C)=CC(=C(C#N)C#N)C=C2C)CC1 | -3.8
Cn1c(SCC(=O)Nc2ccc(F)cc2)nnc1C1CC1 | 4.27
CSc1ncccc1C(=O)NCCc1ccc(Cl)cc1 | 2.23
Cc1nnc(SCC(=O)N(C)C2CCCCC2)n1C | -1.56
CCOC(=O)C1(Cc2ccccc2C(F)(F)F)CCN(C2CCSC2)CC1 (stereo not shown) | -25.2
CC(=O)c1c(C)[nH]c(C(=O)NCc2ccccc2)c1C | -3.31
CC1CC(Nc2ccccc2N)=CC(=O)O1 (stereo not shown) | 11.7
O=C(Cc1c(F)cccc1Cl)NCCN1CCOCC1 | 13
CCC(C)NC(=O)C(Sc1ccccc1)c1ccccc1 (stereo not shown) | 13.6
Cc1cccc(NC(=O)CS(=O)(=O)c2cn(CC(=O)N3CCOCC3)c3ccccc23)c1 | -0.24
CCCCC(=O)Nc1ccc(Br)cc1C(=O)O | 9.15
COc1ccc(N(CCC#N)S(=O)(=O)c2ccc(Cl)cc2)cc1 | -4.21
CC(C)C(CO)N1CCN(Cc2ccccc2)CCC1=O (stereo not shown) | 4.74
CC1(C2CC2)NC(=O)N(CC(=O)N2CCN(c3ccccc3)CC2)C1=O (stereo not shown) | 1.38

SMILES | hERG current change (%, negative = inhibition) at 10uM [%]
COc1ccc(S(=O)(=O)N2CCCCCC2)cc1C(=O)N(C)Cc1ccco1 | -24.4
CCC(=NCc1ccco1)c1c(O)n(C2CCCCC2)c(=O)[nH]c1=O | -17.3
COc1ccc(-c2nn(CCC#N)cc2C(=O)Nc2cccc(C(=O)O)c2)cc1[N+](=O)[O-] | 13.6
CCN1C(=O)C(=O)N(CC(=O)Nc2cc(C)ccc2C)C1=O | -6
O=S(=O)(N/N=C\c1ccc2c(c1)OCO2)c1ccc(Cl)cc1 | -7.94
Oc1ccc(C(=S)N2CCCCC2)cc1 | 12.8
CC(C)(C)c1ccc(/C=N/OCC(=O)NCc2ccccc2)cc1 | -16.5
C/C(=N\NC(=O)c1cc(-c2cccnc2)nc2ccccc12)c1ccc(O)cc1O | 1.5
Cn1nnnc1SCc1ccccc1[N+](=O)[O-] | -1.75
COC(=O)c1c(C)[nH]c(C(=O)C(C)OC(=O)C2CC(=O)N(CCc3ccccc3)C2)c1C (stereo not shown) | -8.06
CN(C)CCNC(=O)/C(=C/c1cccc([N+](=O)[O-])c1)NC(=O)c1ccccc1 | -66.9
Cc1ccc(NC(=O)c2ccc(S(=O)(=O)N3CCCCC3)cc2)nc1 | -5.04
O=C(NC(=S)Nc1ccccn1)c1cc(-c2ccccc2)nc2ccccc12 | 14.5
C[N+]12CCC(CC1)C(C(O)(c1ccccc1)c1cccs1)C2.[I-] (stereo not shown) | 5.66
Cc1ccc2nsnc2c1NC(=O)Cc1ccc(Cl)cc1 | 13.5
O=C(Nc1ccc(SC(F)F)cc1)c1ccc2c(=O)n3c(nc2c1)CCC3 | -22.9
CS(=O)(=O)N(CC(=O)NCCSCc1cccc(Cl)c1)c1ccc(F)cc1 | -30.2
Cc1ccc(CC2SC(=O)NC2=O)cc1Cl (stereo not shown) | 4.36
